In the supplement of paper PMC11741623 one finds yeast fitness gain data, which are given here for 21 substances.

This is one part of the list. Interaction screen of human proteins with wild-type SARS-CoV-2 proteins by split-DHFR complementation in yeast, 1 µg/mL methotrexate. Value = fitness of the pair (three or more lineages) minus that of the viral protein without a human partner, on a scale set by negative (0) and fused positive (1) controls, mean of up to three cultures; higher = more likely to interact. Active = false discovery rate below 0.05 (one-sided t-test) in at least one culture. Nearly all pairs are not hits, and differences among them are mostly noise (correlation between cultures about 0.3); most hits were seen in one culture only. Human sequences are the Swiss-Prot entries looked up by gene name; the clone may be another isoform. NSP2 values were corrected by the authors for a growth advantage. Listed are human proteins with a hit and a random twelfth of the others.

This assay relates to SARS-CoV-2 ORF9Bwu (the 73-codon ORF). In words: yeast fitness gain over the viral ORF with no human partner (scaled fitness); higher = more likely to interact. As to the method:
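Split mouse DHFR complementation in pooled diploid yeast: human ORFeome clones carry one fragment and viral ORFs the other; barcoded lineages compete in 1 µg/mL methotrexate and fitness is read by barcode sequencing in up to three cultures.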
For MAGEA10, P43363, the yeast fitness gain was inactive: 0.00207.

With ZNF785, A8K8V0, the yeast fitness gain is inactive: -0.024.

As to CBWD1, Q9BRT8, the yeast fitness gain is inactive: 0.0117.

Regarding ZNF673, Q5JUW0, the yeast fitness gain was inactive: -0.0355. The result for BNIP3L, O60238 reads inactive: -0.0105.

As to SOX14, O95416, the yeast fitness gain was inactive: 0.000334. Under TLX3, O43711 stands inactive: 0.0228.

Take NDRG4, Q9ULP0: the yeast fitness gain is inactive: 0.0196. FAM19A3, Q7Z5A8: the yeast fitness gain is inactive: -0.0136. Consider IDH3B, O43837, for which the yeast fitness gain was inactive: -0.0575.

In the case of KLF6, Q99612, the yeast fitness gain is inactive: 0.0198.

Take FAM136A, Q96C01: the yeast fitness gain is inactive: 0.0272. The result for CABP5, Q9NP86 reads inactive: 0.0597; that for HSPB7, Q9UBY9, inactive: -0.113. Take PRR14L, Q5THK1: the yeast fitness gain was inactive: 0.0886.

Regarding IHH, Q14623, the yeast fitness gain was inactive: 0.00346.

Consider BHLHA15, Q7RTS1, for which the yeast fitness gain is inactive: -0.105. Regarding TIMM50, Q3ZCQ8, the yeast fitness gain is inactive: 0.0355. Under POLD2, P49005 stands inactive: 0.0484; under ZNF517, Q6ZMY9, inactive: 0.0182; under HEATR1, Q9H583, inactive: 0.0378.
